Some of the results follow. Most values come without repeats; read them as rough.
System: WM1716
Assay: cell count relative to DMSO control; melanoma cells; higher = more viable cells
Settings: library dose: low library concentration; 72 h
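Further: cell number obtained by counting DAPI-stained nuclei in high-throughput microscope images with image analysis software, screen run in 1,536-well plates.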

| Structure (SMILES) | cell count |
| --- | --- |
| Nc1ncn([C@H]2C[C@H](O)[C@@H](CO)O2)c(=O)n1 [decitabine] + CO[C@@H]1[C@H](N(C)C(=O)c2ccccc2)C[C@H]2O[C@]1(C)n1c3ccccc3c3c4c(c5c6ccccc6n2c5c31)C(=O)NC4 [Midostaurin] (first compound 0.1 µM, partner dose 0.08 µM) | 50.7% |
| CO[C@H]1C[C@@H]2CC[C@@H](C)[C@@](O)(O2)C(=O)C(=O)N2CCCC[C@H]2C(=O)O[C@H]([C@H](C)C[C@@H]2CC[C@@H](OCCO)[C@H](OC)C2)CC(=O)[C@H](C)/C=C(\C)[C@@H](O)[C@@H](OC)C(=O)[C@H](C)C[C@H](C)/C=C/C=C/C=C/1C [everolimus] + COc1ccc(Cl)c(Nc2nc3ccccc3nc2NS(=O)(=O)c2cccc(NC(=O)C(C)(C)N)c2)c1 [XL147] (first compound 0.02 µM, partner dose 0.8 µM) | 76.9% |
| Nc1ncn([C@H]2C[C@H](O)[C@@H](CO)O2)c(=O)n1 [decitabine] + Cc1ccc(NC(=O)c2cccc(N(C)C)c2)cc1NC(=O)c1ccc(O)cc1 [ZM336372] (first compound 0.1 µM, partner dose 2 µM) | 86.6% |
| CC(=O)c1c(C)c2cnc(Nc3ccc(N4CCNCC4)cn3)nc2n(C2CCCC2)c1=O [palbociclib] + O=C(CCCCCCC(=O)Nc1ccccc1)NO [vorinostat] (first compound 0.04 µM, partner dose 0.08 µM) | 71.5% |
| CC(=O)c1c(C)c2cnc(Nc3ccc(N4CCNCC4)cn3)nc2n(C2CCCC2)c1=O [palbociclib] + O=C(O)c1ccc(-c2c[nH]c3ncc(-c4ccccc4)cc23)cc1C1CCCC1 [GSK650394] (first compound 0.04 µM, partner dose 0.16 µM) | 57.6% |
| Nc1ncn([C@H]2C[C@H](O)[C@@H](CO)O2)c(=O)n1 [decitabine] + CN(C)S(=O)(=O)c1ccc2c(c1)/C(=C/c1cc3c([nH]1)CCCC3)C(=O)N2 [SU6656] (first compound 0.1 µM, partner dose 0.4 µM) | 85.5% |
| Nc1nc(F)nc2c1ncn2[C@@H]1O[C@H](CO)[C@@H](O)[C@@H]1O [fludarabine] + N#Cc1c(O)c2c(-c3ccc(-c4ccccc4O)cc3)csc2[nH]c1=O [A769662] (first compound 0.2 µM, partner dose 2 µM) | 100% |
| CC(=O)c1c(C)c2cnc(Nc3ccc(N4CCNCC4)cn3)nc2n(C2CCCC2)c1=O [palbociclib] + COc1ccc2c(c1)CCC1C2CCC2(C)C(NCCCCCCN3C(=O)C=CC3=O)CCC12 [U73122] (first compound 0.04 µM, partner dose 0.4 µM) | 72.4% |
| Nc1ccn([C@@H]2O[C@H](CO)[C@@H](O)C2(F)F)c(=O)n1 [gemcitabine] + C#Cc1cccc(Nc2ncnc3cc(OCCOC)c(OCCOC)cc23)c1 [erlotinib] (first compound 0.0004 µM, partner dose 0.8 µM) | 97.4% |
| Nc1nc(F)nc2c1ncn2[C@@H]1O[C@H](CO)[C@@H](O)[C@@H]1O [fludarabine] + COc1ccc(COc2ccc(Cc3cnc(N)nc3N)cc2OC)cc1 [GW2580] (first compound 0.2 µM, partner dose 1 µM) | 103% |

System: WM1745
Assay: as above
Settings: library dose: low library concentration; 72 h

| Structure (SMILES) | cell count |
| --- | --- |
| CC(=O)c1c(C)c2cnc(Nc3ccc(N4CCNCC4)cn3)nc2n(C2CCCC2)c1=O [palbociclib] + Cn1cc(/C=C2\C(=O)Nc3cccnc32)c2ccccc21 [GW441756] (first compound 0.04 µM, partner dose 0.4 µM) | 71.7% |
| CO[C@H]1C[C@@H]2CC[C@@H](C)[C@@](O)(O2)C(=O)C(=O)N2CCCC[C@H]2C(=O)O[C@H]([C@H](C)C[C@@H]2CC[C@@H](OCCO)[C@H](OC)C2)CC(=O)[C@H](C)/C=C(\C)[C@@H](O)[C@@H](OC)C(=O)[C@H](C)C[C@H](C)/C=C/C=C/C=C/1C [everolimus] + Cn1nnc2c(C(N)=O)ncn2c1=O [temozolomide] (first compound 0.02 µM, partner dose 2 µM) | 70.1% |
| CC(=O)O[C@@]12CO[C@@H]1C[C@H](O)[C@@]1(C)C(=O)[C@H](O)C3=C(C)[C@@H](OC(=O)[C@H](O)[C@@H](NC(=O)OC(C)(C)C)c4ccccc4)C[C@@](O)([C@@H](OC(=O)c4ccccc4)[C@H]21)C3(C)C [Docetaxel] + NC(=O)Nc1cc(-c2cccc(F)c2)sc1C(=O)N[C@H]1CCCNC1 [AZD7762] (first compound 0.0001 µM, partner dose 0.02 µM) | 59.5% |
| Nc1nc(F)nc2c1ncn2[C@@H]1O[C@H](CO)[C@@H](O)[C@@H]1O [fludarabine] + C=CCn1c(=O)c2cnc(Nc3ccc(N4CCN(C)CC4)cc3)nc2n1-c1cccc(C(C)(C)O)n1 [MK1775] (first compound 0.2 µM, partner dose 0.02 µM) | 86.1% |
| Nc1ccn([C@@H]2O[C@H](CO)[C@@H](O)C2(F)F)c(=O)n1 [gemcitabine] + COc1ccc(COc2ccc(Cc3cnc(N)nc3N)cc2OC)cc1 [GW2580] (first compound 0.0004 µM, partner dose 1 µM) | 77.1% |
| Nc1ncn([C@H]2C[C@H](O)[C@@H](CO)O2)c(=O)n1 [decitabine] + CC(C)(C)c1cnc(CSc2cnc(NC(=O)C3CCNCC3)s2)o1 [SNS-032] (first compound 0.1 µM, partner dose 0.01 µM) | 104% |
| Nc1nc(F)nc2c1ncn2[C@@H]1O[C@H](CO)[C@@H](O)[C@@H]1O [fludarabine] + Nc1ncn([C@H]2C[C@H](O)[C@@H](CO)O2)c(=O)n1 [decitabine] (first compound 0.2 µM, partner dose 0.1 µM) | 103% |
| CC(=O)O[C@@]12CO[C@@H]1C[C@H](O)[C@@]1(C)C(=O)[C@H](O)C3=C(C)[C@@H](OC(=O)[C@H](O)[C@@H](NC(=O)OC(C)(C)C)c4ccccc4)C[C@@](O)([C@@H](OC(=O)c4ccccc4)[C@H]21)C3(C)C [Docetaxel] + O=C(O)C(=O)Nc1sc2c(c1C(=O)O)CCNC2 [TCS401] (first compound 0.0001 µM, partner dose 1.66667 µM) | 46.1% |
| Nc1ccn([C@@H]2O[C@H](CO)[C@@H](O)C2(F)F)c(=O)n1 [gemcitabine] + CCN(CC)CCCCNc1ncc2cc(-c3cc(OC)cc(OC)c3)c(NC(=O)NC(C)(C)C)nc2n1 [PD173074] (first compound 0.0004 µM, partner dose 0.1 µM) | 88.5% |
| CC(=O)c1c(C)c2cnc(Nc3ccc(N4CCNCC4)cn3)nc2n(C2CCCC2)c1=O [palbociclib] + CCN(CC)CCCCNc1ncc2cc(-c3cc(OC)cc(OC)c3)c(NC(=O)NC(C)(C)C)nc2n1 [PD173074] (first compound 0.04 µM, partner dose 0.1 µM) | 70.5% |
| Nc1ncn([C@H]2C[C@H](O)[C@@H](CO)O2)c(=O)n1 [decitabine] + COc1cc2c(Oc3ccc4[nH]c(C)cc4c3F)ncnc2cc1OCCCN1CCCC1 [cediranib] (first compound 0.1 µM, partner dose 0.4 µM) | 80.7% |
| CC(=O)c1c(C)c2cnc(Nc3ccc(N4CCNCC4)cn3)nc2n(C2CCCC2)c1=O [palbociclib] + Cc1nc(Nc2ncc(C(=O)Nc3c(C)cccc3Cl)s2)cc(N2CCN(CCO)CC2)n1 [dasatanib] (first compound 0.04 µM, partner dose 0.004 µM) | 70.7% |
| CO[C@H]1C[C@@H]2CC[C@@H](C)[C@@](O)(O2)C(=O)C(=O)N2CCCC[C@H]2C(=O)O[C@H]([C@H](C)C[C@@H]2CC[C@@H](OCCO)[C@H](OC)C2)CC(=O)[C@H](C)/C=C(\C)[C@@H](O)[C@@H](OC)C(=O)[C@H](C)C[C@H](C)/C=C/C=C/C=C/1C [everolimus] + C=CCNC1=C2C[C@@H](C)C[C@H](OC)[C@H](O)[C@@H](C)/C=C(\C)[C@H](OC(N)=O)[C@@H](OC)/C=C\C=C(/C)C(=O)NC(=CC1=O)C2=O [Tanespimycin] (first compound 0.02 µM, partner dose 0.002 µM) | 70% |
| CC(=O)O[C@@]12CO[C@@H]1C[C@H](O)[C@@]1(C)C(=O)[C@H](O)C3=C(C)[C@@H](OC(=O)[C@H](O)[C@@H](NC(=O)OC(C)(C)C)c4ccccc4)C[C@@](O)([C@@H](OC(=O)c4ccccc4)[C@H]21)C3(C)C [Docetaxel] + Cc1ccc(NC(=O)c2cccc(N(C)C)c2)cc1NC(=O)c1ccc(O)cc1 [ZM336372] (first compound 0.0001 µM, partner dose 2 µM) | 43.8% |
| CC(=O)O[C@@]12CO[C@@H]1C[C@H](O)[C@@]1(C)C(=O)[C@H](O)C3=C(C)[C@@H](OC(=O)[C@H](O)[C@@H](NC(=O)OC(C)(C)C)c4ccccc4)C[C@@](O)([C@@H](OC(=O)c4ccccc4)[C@H]21)C3(C)C [Docetaxel] + O=C1NC(=O)/C(=C/c2ccc(-c3ccc(F)cc3O)o2)S1 [AS252424] (first compound 0.0001 µM, partner dose 1 µM) | 61.4% |
| Nc1ncn([C@H]2C[C@H](O)[C@@H](CO)O2)c(=O)n1 [decitabine] + C[C@]1(c2nc3c(C(N)=O)cccc3[nH]2)CCCN1 [Veliparib] (first compound 0.1 µM, partner dose 1.4 µM) | 116% |

Reference: the supplement of paper PMC4604168 (melanoma cell lines)
